Assay results published in the antibiotic and cytotoxicity screens of Wong et al. (2023).
Some of the results follow.

Columns and labels:
HSkMC = human skeletal muscle cells; test: cytotoxicity call (relative viability < 0.9); settings: 10 µM
HepG2 = test: cytotoxicity call (relative viability < 0.9); settings: 10 µM
S. aureus RN4220 = test: growth inhibition call (relative growth <= 0.2); settings: 50 µM

SMILES | cytotoxicity call (HSkMC) | cytotoxicity call (HepG2) | growth inhibition call (S. aureus RN4220)
COc1ccc(S(=O)(=O)N(C)C[C@@H]2Oc3ccc(NC(=O)Nc4c(C)noc4C)cc3C(=O)N([C@H](C)CO)C[C@@H]2C)cc1 | inactive | inactive | inactive
CNC(=O)CN(C#N)c1nc(N(C)C)nc(N(C)C)n1 | inactive | inactive | inactive
Cc1ccc(C(=O)N2CCC(n3cc(C(C)(C)N)nn3)CC2)c(C)c1 | inactive | inactive | inactive
C[C@@H]1CN([C@@H](C)CO)C(=O)c2cc(NC(=O)Nc3cccc4ccccc34)ccc2O[C@H]1CN(C)S(=O)(=O)c1cccs1 | inactive | inactive | inactive
C[C@@H]1CN([C@H](C)CO)C(=O)c2c(c3ccccc3n2C)-c2ccccc2CO[C@H]1CN(C)Cc1cccc2c1OCCCO2 | inactive | inactive | inactive
C[C@@H]1CN([C@H](C)CO)C(=O)c2cccc(NC(=O)NC3CCCCC3)c2O[C@H]1CN(C)Cc1ccc(-c2ccccc2)cc1 | inactive | inactive | inactive
O=C(NCC(F)(F)F)[C@@H]1c2ccccc2C(=O)N(Cc2cc(F)cc(C(F)(F)F)c2)[C@H]1c1ccc(CO)cc1 | inactive | inactive | inactive
C[C@@H]1CCCCO[C@H](CN(C)Cc2ccc(C(F)(F)F)cc2)[C@H](C)CN([C@@H](C)CO)C(=O)c2cc(NC(=O)Nc3ccc(F)cc3)ccc2O1 | inactive | active | inactive
C[C@H](CO)N1C[C@H](C)[C@@H](CN(C)S(=O)(=O)c2cn(C)cn2)Oc2ccc(NC(=O)NC3CCCCC3)cc2CC1=O | inactive | inactive | inactive
C[C@@H]1CN([C@@H](C)CO)C(=O)c2cc(NC(=O)Nc3cccc4ccccc34)ccc2O[C@@H](C)CCCCO[C@H]1CN(C)S(=O)(=O)c1cccs1 | inactive | inactive | inactive
O=C(O)CCCCC(=O)O | inactive | inactive | inactive
CC(C)NC(=O)Nc1ccc2c(c1)CC(=O)N([C@H](C)CO)C[C@H](C)[C@H](CN(C)S(=O)(=O)c1ccc(Cl)cc1)O2 | inactive | inactive | inactive
Cc1noc(C)c1NC(=O)N(C)C[C@H]1Oc2c(NC(=O)c3ccncc3)cccc2C(=O)N([C@H](C)CO)C[C@H]1C | inactive | inactive | inactive
C[C@@H]1CCCCO[C@@H](CN(C)S(=O)(=O)c2ccc(Cl)cc2)[C@H](C)CN([C@H](C)CO)C(=O)c2cc(NC(=O)C3CCCCC3)ccc2O1 | inactive | inactive | inactive
C[C@@H]1CCCCO[C@H](CN(C)CC2CC2)[C@@H](C)CN([C@H](C)CO)C(=O)c2cc(NC(=O)Cc3ccccc3)ccc2O1 | inactive | inactive | inactive
C[C@H](CO)N1C[C@H](C)[C@@H](CN(C)CC2CCCCC2)Oc2ccc(NC(=O)Cc3cn(C)c4ccccc34)cc2CC1=O | inactive | inactive | inactive
CCCCN1CC=C[C@@]23O[C@@H]4C=CCOC(=O)[C@@H]4[C@H]2C(=O)N([C@@H](C)CO)[C@@H]3C1=O | inactive | inactive | inactive
C[C@H](CO)N1C[C@H](C)[C@@H](CN(C)Cc2ccc3c(c2)OCO3)Oc2ccc(NC(=O)C3CC3)cc2C1=O | inactive | inactive | inactive
C[C@H]1CN([C@@H](C)CO)C(=O)c2cc(NC(=O)NC3CCCCC3)ccc2O[C@H]1CN(C)Cc1ccc(C(F)(F)F)cc1 | inactive | inactive | inactive
COc1ccc(S(=O)(=O)Nc2ccc3c(c2)C(=O)N([C@@H](C)CO)C[C@H](C)[C@H](CN(C)S(=O)(=O)c2ccc(OC)cc2)O3)cc1 | inactive | inactive | inactive
Cn1cc(N)cn1 | inactive | inactive | inactive
C[C@H](CO)N1C[C@H](C)[C@H](CN(C)Cc2ccccc2C(F)(F)F)OCc2ccccc2-c2c(n(C)c3ccccc23)C1=O | active | inactive | inactive
C[C@H](CO)N1C[C@H](C)[C@@H](CN(C)Cc2ccc(C(=O)Nc3ccccc3N)cc2)Oc2ccc(NC(=O)Nc3ccccc3)cc2CC1=O | inactive | inactive | inactive
Cc1ccc(S(=O)(=O)Nc2cccc3c2O[C@@H](CN(C)Cc2ccc(C(F)(F)F)cc2)[C@@H](C)CN([C@@H](C)CO)C3=O)cc1 | inactive | inactive | inactive
COc1ccc(S(=O)(=O)N(C)C[C@H]2Oc3c(NS(=O)(=O)c4ccccc4)cccc3C(=O)N([C@@H](C)CO)C[C@H]2C)cc1 | inactive | inactive | inactive
